Test systems include A101D; A2058; A375.
Holding throughout (assay): cell count relative to DMSO control; melanoma cells; higher = more viable cells
Common to all, as to details: library dose: standard library concentration; 72 h

The structures appear in SMILES notation. This is one part of the list. Single values are uncertain, as repeats are few or missing.
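Also: cells treated in 1,536-well plates, then fixed and DAPI-stained, with nuclei counted from automated high-throughput microscope images.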

With `N#CC[C@H](C1CCCC1)n1cc(-c2ncnc3[nH]ccc23)cn1` [ruxolitinib] + NC(=O)Nc1cc(-c2cccc(F)c2)sc1C(=O)N[C@H]1CCCNC1 [AZD7762] (first compound 5 µM, partner dose 0.1 µM), the values for the cell count in the assay with A101D, in the assay with A2058 and in the assay on A375 were 65.2%, 76.1% and 62.6%, respectively.
In the same order, the values of `Cc1cc(Nc2cc(N3CCN(C)CC3)nc(Sc3ccc(NC(=O)C4CC4)cc3)n2)n[nH]1` [Tozasertib] + C=CCn1c(=O)c2cnc(Nc3ccc(N4CCN(C)CC4)cc3)nc2n1-c1cccc(C(C)(C)O)n1 [MK1775] (first compound 0.03 µM, partner dose 0.1 µM) are 56.7%, 85.7% and 84.8%.
Taken in the same sequence, the figures for `N#CC[C@H](C1CCCC1)n1cc(-c2ncnc3[nH]ccc23)cn1` [ruxolitinib] + O=C(Nc1cccc(Cl)c1)Nc1ncc(CCNc2ncnc3ccsc23)s1 [SNS314] (first compound 5 µM, partner dose 0.004 µM) were 69.4%, 53.3% and 86.2%.
Consider `Cc1cc(Nc2cc(N3CCN(C)CC3)nc(Sc3ccc(NC(=O)C4CC4)cc3)n2)n[nH]1` [Tozasertib] + CC(=O)c1c(C)c2cnc(Nc3ccc(N4CCNCC4)cn3)nc2n(C2CCCC2)c1=O [palbociclib] (first compound 0.03 µM, partner dose 0.2 µM), for which the figures for the cell count in the assay on A101D, in the assay on A2058 and in the assay with A375 were 69.8%, 108% and 67.9%, respectively.
`Cc1cc(Nc2cc(N3CCN(C)CC3)nc(Sc3ccc(NC(=O)C4CC4)cc3)n2)n[nH]1` [Tozasertib] + CC1(C)CCC(c2ccc(Cl)cc2)=C(CN2CCN(c3ccc(C(=O)NS(=O)(=O)c4ccc(N[C@H](CCN5CCOCC5)CSc5ccccc5)c(S(=O)(=O)C(F)(F)F)c4)cc3)CC2)C1 [ABT263] (first compound 0.03 µM, partner dose 2 µM): the cell count in the assay with A101D was 30%; in the assay with A2058, 72.3%; in the assay on A375, 63.7%.

The values are drawn from the supplement of paper PMC4604168 (melanoma cell lines).
